Experimental data reported in patent publication US20250340636A1, “ANTIBODIES TARGETING L1CAM AND USES THEREOF” (MEMORIAL SLOAN-KETTERING CANCER CENTER, priority 2023, published 2025).

Key:
[1] = target: T1, MCF-7 cells (endogenous L1CAM) (Homo sapiens, UniProt P32004); assay: Flow cytometry binding to MCF-7 cells
T1 construct: which express endogenous L1CAM at various levels; endogenous in cells; host or cells: MCF-7
Description: (§1) Binding Analysis. […] Dissociation constants (KD) for binding to soluble human and cynomolgus monkey L1CAM-His were determined using biolayer interferometry (BLI). In addition, EC50 values for binding to cell-bound L1CAM were established by flow cytometry using HEK293T/FT cells overexpressing human or mouse L1CAM, MCF-7 cells, and MDA-MB-231 cells. In addition, the epitope regions of the mAbs were determined by BLI interaction analysis with L1CAM subdomains (Ig and FN) expressed individually, and by a BLI competition experiment to identify epitope bins.
Binding to L1CAM on Cells. […] Cells were then incubated with an AlexaFluor 647 goat anti-human Fc secondary antibody. After washing, the stained cells were analyzed by flow cytometry.

[2] = target: T2, MDA-MB-231 cells (endogenous L1CAM) (Homo sapiens, UniProt P32004); assay: Flow cytometry binding to MDA-MB-231 cells
T2 construct: MDA-MB-231 cells, a breast cancer cell line that endogenously expresses L1CAM; endogenous in cells; host or cells: MDA-MB-231
Description: Hybridoma Screening. Binding to human L1CAM protein was tested by ELISA and to a HEK293T cell line overexpressing human L1CAM by flow cytometry. […] Cross-reactivity to cynomolgus L1CAM was not assessed at this point, as it is >99% homologous to human L1CAM. […] The antibodies were tested for binding to MDA-MB-231 cells, a breast cancer cell line that endogenously expresses L1CAM, followed by analysis of their internalization efficacy in MDA-MB-231 cells.
as §1, with “In addition, EC50 values for binding to cell-bound L1CAM were established by flow cytometry using HEK293T/FT cells overexpressing human or mouse L1CAM, MCF-7 cells, and MDA-MB-231 cells.” left out
Briefly, CDR-grafted heavy and light chains were expressed in various combinations and the antigen-binding properties were evaluated. Dissociation constant (KD) of various humanized antibodies was determined by biolayer interferometry (BLI) (FIG. 8). Further, binding to 293 FT cells and MDA-MB-231 cells expressing L1CAM was detected by FACS analysis (FIG. 9).
Binding to L1CAM on Cells. […] After washing, the stained cells were analyzed by flow cytometry.

[3] = target: HEK293T cells overexpressing human L1CAM (Homo sapiens, UniProt P32004)
Description: (§2) ADC Cytotoxicity Analysis. The potency of the ADCs was tested in cytotoxicity assays using various cell types that express human L1CAM at different levels, including stably transfected HEK293T cells (overexpression), the MCF-7 breast cancer cell line (medium expression) and the MDA-MB-231 breast cancer cell line (low-medium expression). The ADCs were added to the cells at various concentrations ranging from 0.1 pM to 100 nM, and cell viability was assessed 96 hours later.
(§3) The ADCs were added to the cells at various concentrations, with 10 serial 5-fold dilutions starting at 10 μg/ml. Cell viability was assessed 96 hours later using CellTiterGlo reagent, and cell viability was plotted against antibody concentration (FIG. 18).

[4] = tested on: MCF-7 breast cancer cell line
Description: as §2, §3

[5] = tested on: MDA-MB-231 breast cancer cell line
Description: as §2, §3

[6] = tested on: MDA-MB-231-LM2 breast cancer cells; assay: MDA-MB-231-LM2 subcutaneous xenografts; assay type: in vivo; conditions: MDA-MB-231 subcutaneous xenograft model, mouse
Description: Athymic mice were transplanted subcutaneously with MDA-MB-231-LM2 breast cancer cells. […] FIGS. 26A and 26B show tumor growth monitored on a weekly basis.
MDA-MB-231-LM2 Subcutaneous Xenografts. Doses of 5×10^6 cells of the aggressive lung metastatic derivative (MDA231-LM2) of the MDA-MB-231 triple negative breast cancer cell line were injected into the flank of athymic mice, and tumors were grown until they reached 100 mm^3 in size.

Chain of HEK293T cells overexpressing human L1CAM (P32004 20-1257): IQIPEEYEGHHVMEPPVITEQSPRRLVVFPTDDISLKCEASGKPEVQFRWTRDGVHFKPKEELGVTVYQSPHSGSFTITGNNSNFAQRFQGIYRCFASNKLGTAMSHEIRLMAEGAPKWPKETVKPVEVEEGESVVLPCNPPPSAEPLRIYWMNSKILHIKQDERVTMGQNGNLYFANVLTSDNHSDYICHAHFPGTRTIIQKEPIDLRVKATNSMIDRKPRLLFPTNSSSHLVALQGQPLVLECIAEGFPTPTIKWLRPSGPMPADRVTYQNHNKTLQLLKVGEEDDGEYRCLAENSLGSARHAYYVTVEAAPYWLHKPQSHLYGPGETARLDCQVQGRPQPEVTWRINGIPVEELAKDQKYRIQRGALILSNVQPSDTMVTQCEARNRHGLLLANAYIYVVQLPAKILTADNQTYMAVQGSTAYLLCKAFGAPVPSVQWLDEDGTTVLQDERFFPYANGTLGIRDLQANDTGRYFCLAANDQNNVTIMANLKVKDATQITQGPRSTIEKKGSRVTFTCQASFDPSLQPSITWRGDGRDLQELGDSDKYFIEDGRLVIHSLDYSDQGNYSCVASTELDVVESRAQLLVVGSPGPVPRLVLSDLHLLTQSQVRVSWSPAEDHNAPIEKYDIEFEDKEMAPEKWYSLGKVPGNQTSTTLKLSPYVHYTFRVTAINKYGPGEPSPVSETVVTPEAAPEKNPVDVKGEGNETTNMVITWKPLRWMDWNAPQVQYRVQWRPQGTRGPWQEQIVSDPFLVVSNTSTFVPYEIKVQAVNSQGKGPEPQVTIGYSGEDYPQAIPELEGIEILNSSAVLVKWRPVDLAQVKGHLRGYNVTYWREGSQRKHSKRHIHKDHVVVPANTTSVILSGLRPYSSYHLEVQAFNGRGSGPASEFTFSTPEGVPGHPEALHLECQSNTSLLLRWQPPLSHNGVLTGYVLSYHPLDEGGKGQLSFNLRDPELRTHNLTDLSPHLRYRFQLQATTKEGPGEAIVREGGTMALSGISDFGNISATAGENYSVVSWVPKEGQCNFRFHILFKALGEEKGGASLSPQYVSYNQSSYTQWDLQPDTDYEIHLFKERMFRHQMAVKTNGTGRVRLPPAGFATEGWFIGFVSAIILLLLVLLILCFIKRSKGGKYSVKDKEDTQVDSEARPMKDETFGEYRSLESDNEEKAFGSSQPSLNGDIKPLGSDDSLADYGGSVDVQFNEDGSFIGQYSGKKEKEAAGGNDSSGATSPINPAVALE
T1 sequence (P32004 20-1257): as above
T2 sequence (P32004 20-1257): as above

B1: TDI-Y-004 (antibody)
heavy: QVQLVQSGAEVKKPGSSVKVSCKASGYTFTNYYIHWVRQAPGQGLEWMGKIGPGSGSPYYQGMFKDRVTITADESTSTAYMELSSLRSEDTAVYYCARWLLPFDYWGQGTLVTVSS[human IgG1 constant region not printed]
light: EIVLTQSPGTLSLSPGERATLSCRASSSVNYMHWYQQKPGQAPRLLIYATSILASGIPDRFSGSGSGTDYTLTISRLEPEDFAVYYCQQFSSDPLTFGGGTKVEIKRTVAAPSVFIFPPSDEQLKSGTASVVCLLNNFYPREAKVQWKVDNALQSGNSQESVTEQDSKDSTYSLSSTLTLSKADYEKHKVYACEVTHQGLSSPVTKSFNRGEC
- EC50 for binding to cells [1]: single-digit nM range
- EC50 for binding to cells [2]: single-digit nM range
- Cytotoxicity for cells overexpressing human L1CAM (HEK293T) [3]: Moderate
- Cytotoxicity for cells with endogenous L1CAM (MCF-7) [4]: Weak
- Cytotoxicity for cells with endogenous LICAM (MDA-MB-231) [5]: Nonspecific killing only
- Survival ([6]; ADC with cleavable linker): 100% survival
- Tumor control ([6]; ADC with cleavable linker): >90% tumor control
- Tumor regrowth, days after last dose ([6]; ADC with cleavable linker): No tumor regrowth up to 60
- Survival ([6]; ADC with non-cleavable linker): 100% survival
- Tumor control ([6]; ADC with non-cleavable linker): 100%
- Tumor recurrence, days after last dose ([6]; ADC with non-cleavable linker): No tumor recurrence up to 60
- Tumor regression ([6]; ADC with non-cleavable linker): complete

B2: TDI-Y-005 (antibody)
heavy: EVQMVESGGGLVQPGGSLRLSCAAPGFIFSSYNMNWVRQAPGKGLEWVSYISSSSSTTYYADSVKGRFTISRDNAKNSLYLQMNSLRDEDTAVYYCASLYSGYDYYYYYGMDVWGQGTTVTVSS[human IgG1 constant region not printed]
light: DIVMTQTPLSSPVSLGQPASISCRSSQSLVHSDGNTYLSWLQQRPGQPPRVLIYKISKRFSGVPDRFSGSGAGTDFTLKISRVEAEDVGVYYCMQATQFPFTFGPGTKVDIKRTVAAPSVFIFPPSDEQLKSGTASVVCLLNNFYPREAKVQWKVDNALQSGNSQESVTEQDSKDSTYSLSSTLTLSKADYEKHKVYACEVTHQGLSSPVTKSFNRGEC
- EC50 for binding to cells [1]: single-digit nM range
- EC50 for binding to cells [2]: single-digit nM range
- Cytotoxicity for cells overexpressing human L1CAM (HEK293T) [3]: Moderate
- Cytotoxicity for cells with endogenous L1CAM (MCF-7) [4]: Weak
- Cytotoxicity for cells with endogenous LICAM (MDA-MB-231) [5]: Nonspecific killing only
- Survival ([6]; ADC with cleavable linker): 100% survival
- Tumor control ([6]; ADC with cleavable linker): >90% tumor control
- Tumor regrowth, days after last dose ([6]; ADC with cleavable linker): No tumor regrowth up to 60 days
- Survival ([6]; ADC with non-cleavable linker): 100% survival
- Tumor control ([6]; ADC with non-cleavable linker): 100% tumor control,
- Tumor recurrence, days after last dose ([6]; ADC with non-cleavable linker): No tumor recurrence up to 60 days
- Tumor regression ([6]; ADC with non-cleavable linker): complete regression
